According to PubChem BioAssay AID2546 (National Center for Advancing Translational Sciences (NCATS), 2010):
In all, about 310,000 compounds went through this assay and about 11,000 (3.5%) were called active. This list was built around the results that the source calls inconclusive (neither active nor inactive); the mix of calls is not that of the screen. Calls come from the whole dose curve; as a rule, active = well fitted inhibition curve with a large enough effect; inconclusive = small, poorly fitted or top-dose-only effect, or effect the other way; inactive = flat fitted curve, though single readings scatter. Potencies of inconclusive entries are left out as doubtful fits.

experiment: VP16 counterscreen qHTS for inhibitors of ROR gamma transcriptional activity; conditions: Drosophila S2 Gal4-VP16 UAS-luciferase, luminescence, 20 h; activity, negative = inhibition: at 53.6 µM (top of the series);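 note: Gal4-VP16 expression switched on by copper sulfate through the metallothionein promoter; nearly all actives have a fitted effect of over 50% in size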
% is set by controls: 0 for no effect and ±100 for the full control effect; potency is the fitted concentration of half-maximal effect; tags give direction and shape of the fitted curve.

| SMILES | Potency | activity, negative = inhibition |
| --- | --- | --- |
| Cc1cc(=O)oc2cc(OCC#N)ccc12 | inconclusive [inhibitor, partial curve, poor fit] |  |
| CC(C)(C)c1ccc(/C=N/Nc2nncn2N)cc1 | inconclusive [inhibitor, single point] |  |
| O=C1CCc2ccc(OCCCCN3CCN(c4cccc(Cl)c4Cl)CC3)cc2N1 | inconclusive [inhibitor, partial curve] |  |
| Cc1cc(C)c2[nH]c(O)c(N=NC(=S)NCC3CCCO3)c2c1 (configuration not stated) | active: 7.08 µM |  |
| O=C(N/N=C/C=C/c1cccc([N+](=O)[O-])c1)c1ccncc1 | inconclusive [inhibitor, single point] |  |
| CCCOc1ccc2c3c(c(=O)oc2c1OCCC)CCCC3 | inactive |  |
| S=C(NCCN1CCOCC1)N/N=C/c1cccs1 | active: 4.47 µM |  |
| Cc1cc(C)cc(NS(=O)(=O)c2ccc(-c3cnc(C4CC4)o3)cc2)c1 | inconclusive [inhibitor, single point] |  |
| C=CCOc1c(Br)cc(CNc2ccc(NC(=O)C(C)C)c(OC)c2)cc1OCC | inconclusive [activator, single point] |  |
| COc1ccc(/C=N\NC(=O)c2ccccc2)cc1COc1ccc(F)cc1 | active: 11.2 µM |  |
| c1ccc(CCn2nnnc2C(c2cccs2)N2CCN(Cc3ccc4c(c3)OCO4)CC2)cc1 (configuration not stated) | inconclusive [inhibitor, single point] |  |
| CCOC(=O)CN(c1cc([N+](=O)[O-])ccc1OC)S(C)(=O)=O | inconclusive [inhibitor, single point] |  |
| COc1ccc(NC(=O)N2CCC3(CC2)CCN(S(=O)(=O)c2ccccc2)CC3)cc1 | inconclusive [inhibitor, single point] |  |
| COc1ccc(CC(=O)Nc2ccc(N3CCN(c4ccc(OC)cc4)CC3)c(C#N)c2)cc1 | inconclusive [inhibitor, full curve] |  |
| COc1cccc(CNc2ccc([N+](=O)[O-])cc2Cl)c1O | inconclusive [inhibitor, single point] |  |
| Cc1ccc(-n2c(C)cc(/C=N\NC(=O)CC(=O)NC(C)C)c2C)cc1 | inactive |  |
| CCN(CC)S(=O)(=O)c1cccc(C(=O)/C=C2/N(C)c3ccccc3C2(C)C)c1 | inconclusive [inhibitor, single point] |  |
| Cc1cc(C)nc(Nc2nc(-c3ccccc3)cs2)n1 | inconclusive [inhibitor, partial curve] |  |
| O=C(COC(=O)CN1C(=O)C2CCCCC2C1=O)NC1CCS(=O)(=O)C1 (configuration not stated) | inactive |  |
| OC(CN1CCN(Cc2ccccc2)CC1)Cn1c2ccccc2c2ccccc21 (configuration not stated) | inconclusive [inhibitor, single point] |  |
| CSc1nncn1/N=C/c1ccc([N+](=O)[O-])cc1 | inconclusive [activator, single point] |  |
| CNCc1ccccc1Sc1ccc(O)c(O)c1 | active: 7.08 µM |  |
| O=C(C1CCC(Cn2c(=S)[nH]c3ccccc3c2=O)CC1)N1CCOCC1 (configuration not stated) | inconclusive [inhibitor, single point] |  |
| OCc1cn(-c2ccccc2)nc1-c1ccc(-c2nn(-c3ccccc3)cc2CO)cc1 | inconclusive [inhibitor, single point] |  |

| SMILES | Potency | activity, negative = inhibition |
| --- | --- | --- |
| CCOC(=O)C(CC)/C(C)=N/NC(=O)c1ccc([N+](=O)[O-])cc1 (configuration not stated) | inconclusive [inhibitor, single point] |  |
| CCCCSc1nnc(CCNC(=O)OC(C)(C)C)o1 | inactive |  |
| COc1cc(/C=N/O)ccc1OCc1ccccc1Cl | active: 5.01 µM |  |
| CC1CC=CC2C1C(=O)N(Cc1ccccc1)C2c1ccoc1 (configuration not stated) | inactive |  |
| Oc1ccc(C[C@@H]2CNC(=S)N2CCc2cc(C(F)(F)F)cc(C(F)(F)F)c2)cc1 | inconclusive [inhibitor, partial curve, poor fit] |  |
| Cc1cccc(C(=O)Oc2ccc(/C=N/NC(=O)c3ccccc3O)cc2)c1 | active: 3.55 µM |  |
| COC(=O)N1CCC2(CCCN(C(=O)Nc3cccc(F)c3)C2)CC1 | inactive |  |
| O=C1NC(=S)S/C1=C/c1ccc(N2CCOCC2)o1 | inconclusive [inhibitor, single point] |  |
| COc1cc(C)c(C)cc1S(=O)(=O)N1CCN(Cc2ccc3c(c2)OCO3)CC1 | inconclusive [inhibitor, partial curve, poor fit] |  |
| O=C(c1ccc(Br)o1)N1CCN(c2ccc(F)cc2)CC1 | inactive |  |
| O=C(Nc1ccc(NC(=O)c2ccco2)nc1)c1ccco1 |  | inactive: -22.1% [at 10 µM] |
| CC1CC1C(=O)OCC(=O)Nc1cccc(S(=O)(=O)NC2=NCCCCC2)c1 (configuration not stated) | inconclusive [inhibitor, single point] |  |
| O=C(O)CSc1c(-c2ccccc2)c2cc(Cl)ccc2[nH]c1=O | inconclusive [inhibitor, single point] |  |
| Cc1c(C(C)(C)O)[nH]c2ccc(C#N)cc12 | inactive |  |
| COc1cc(/C=N/NC(=S)NC2CC3CC2C2C=CCC32)ccc1O (configuration not stated) | active: 4.47 µM |  |
| O=C(CN1CCC(Cc2ccccc2)CC1)NC(=O)NCc1ccccc1 | inactive |  |
| COc1ccc(C(=O)NC(CC(=O)O)c2cc([N+](=O)[O-])ccc2Cl)cc1 (configuration not stated) | inactive |  |
| Cc1c(C(=O)N/N=C/C(C)C)[nH]c2ccc([N+](=O)[O-])cc12 | inconclusive [inhibitor, single point] |  |
| CC(C)C(=O)Nc1ccc(-c2nc3ccccc3c(=O)o2)cc1 | inconclusive [inhibitor, partial curve] |  |
| Cc1c(Nc2nc(-c3ccc(Cl)cc3)cs2)c(=O)n(-c2ccccc2)n1C | inactive |  |
| COc1cc2c(cc1OC)C1(C)N(CC2)C(C(C)=O)=NN1c1ccc(Cl)cc1 (configuration not stated) | inactive |  |
| O=C(NNc1nc2ccccc2s1)Nc1ccc(F)cc1 | inconclusive [inhibitor, single point] |  |
| CCc1ccc(NC(=O)Cn2nc(C(F)(F)F)c3c2CCC3)cc1 | inactive |  |
